Results on 48 sequences are retold here after the supplement of paper PMC10126150.

Values marked as one replicate rest on one cluster of the flow cell; about a third of the high ones do not repeat.

This series has as its system ATP. Nature of the series: switch fluorescence ratio, 500 uM ATP over buffer (Cy3 cluster intensity, sum of 5 cycles each) (fold (ratio)); higher = stronger signal-on switching upon ATP binding; sequences stand for … in TCGTCGGCAGCGTCAGATGTGTATAAGAGACAGTTTTTTTTTTTTTTTTTTTTTTTTT…TC. The note with it: aptamer strand: ATP DNA aptamer (quencher-CACCTGGGGGAGTATTGCGGAGGAAGG + anchor), 100 nM annealed; ATP concentration: 500 uM; one replicate. Put shortly: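 Switching-strand clusters labelled with Cy3 on a modified Illumina MiSeq flow-cell were annealed to 100 nM quencher-labelled ATP aptamer, imaged in selection buffer, and re-imaged after 15 min with 500 uM ATP at 22 °C. This was done over five cycles with NaOH stripping and re-annealing in between. The fluorescence ratio is summed target-cycle over summed buffer-cycle Cy3 intensity per cluster, averaged per switch-domain sequence, excluding clusters outside 100-1000 RFU.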
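Note: ATP exposure 15 min at 22 °C before imaging.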

With CTATATAATG, the switch fluorescence ratio was 0.974.

Regarding ACGGTATCGG, the switch fluorescence ratio worked out at 1.01. In the case of GCCGAGTAAC it was 1.08; in that of TGAGGCCCTA, 1.03; in that of GCCGACGGCT, 0.987. For TGTACTCACG the value was 1.48; for GGACTAACGT, 1.23.

Take CGAGTAGTTT: the switch fluorescence ratio stood at 1.03. For GTATTAATAG the value was 0.975. With GCATCATAGT, the switch fluorescence ratio was 1.04.

As to AAATCATTT, the switch fluorescence ratio was determined as 0.993. Regarding CGTATTGGAA, the switch fluorescence ratio was 0.949. In the case of GGGATCCTAA it was 1.01; in that of GTCCCTATTT, 0.97; in that of CGTGAAATTA, 1. With AACCGAGCTT, the switch fluorescence ratio is 1.15. In the case of GAGAATACTA it was 1.01; in that of GTAGACGGAC, 1.17.

For the sequence TCACGAATTG, the switch fluorescence ratio is 0.962. For GACGATATAC the value was 4.06; for GCACATATAT, 1.1; for TAACGCGTTT, 1.02. Take CTTTGAGGAA: the switch fluorescence ratio was 0.994.

Take CCTGATTCGT: the switch fluorescence ratio was 1. In the case of GCAAGGCTTC it was 1.03; in that of CCTAACGCCA, 4.77; in that of TCAGGACACA, 1.03. For GAGCGCAAGT the value was 1.04; for CGTTCATATT, 0.985.

Take ATGAACACGG: the switch fluorescence ratio came to 1.07.

As for CATTGTTTAT, the switch fluorescence ratio came to 0.963. In the case of GGCAGTCGCG it was 0.975.

With TCCTGGTCGG, the switch fluorescence ratio came to 1.01.

As for TGTTATGGAA, the switch fluorescence ratio came out at 1. In the case of GAGACTTGGA it was 1.03; in that of CCTCTCCTTT, 1.1; in that of GACGAAATGT, 1.21. For ACGGGGTGAC the value was 1.01; for GTTAGTTATT, 0.955. In the case of TATGTGGAAC it was 0.992; in that of AAAACATCG, 1.02; in that of GGTCTTATTG, 1.05.

As to AAGCGGGCTA, the switch fluorescence ratio came to 0.966.

Take CGGACCTCAT: the switch fluorescence ratio turned out to be 1.04. Consider CATGGTAGTG, for which the switch fluorescence ratio stood at 1.01. For AATCCGGACG the value was 1.01. Turning to TGGCTTTGT, the switch fluorescence ratio was 1.01. For CAATGCCTGT the value was 0.976.
